Source: a collection of fitness landscapes (doi:10.1016/j.celrep.2020.107928)
In all, about 81,000 sequences were measured (“one-hybrid fitness for binding NBS DNA”: median about -0.1, highest 2% from about 0.36 on). The list shows a part of the results.

B1: Caulobacter ParB omega fusion; a variant is named by its letters at X, in order, B8GW30 (parent)
chain: MESVVVGEPGMSEGRRGLGRGLSALLGEVDAAPAQAPGEQLGGSREAPIEILQRNPDQPRRTFREEDLEDLSNSIREKGVLQPILVRPSPDTAGEYQIVAGERAWRAAQRAGLKTVPIMVRELDDLAVLEIGIIENVQRADLNVLEEALSYKVLMEKFERTQENIAQTIGKSXSHVANXMRLLXLPDEVQSYLVSGELTAXHARAIAAAADPVALAKQIIEGGLSVRETEALARKAPNLSAGKSKGGRPPRVKDTDTQALESDLSSVLGLDVSIDHRGSTGTLTITYATLEQLDDLCNRLTRGI

Variants of: B1
Assay: one-hybrid fitness for binding NBS DNA (the Noc-binding site; scaled: cognate 1, non-cognate 0); higher = stronger binding
Details: with NBS DNA site
In short: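 Values were rescaled so that cognate is 1 and non-cognate is 0. Each is a fitness, the log change in a variant's read ratio to wild type from Illumina reads of plasmids before and after selection, with three replicate libraries pooled and variants under 10 reads dropped. Selection of the Caulobacter ParB libraries, four specificity codons randomised, used E. coli USO with a HIS3 reporter, site 19 bp from the promoter, on M9-minus-histidine with 0.1 mM IPTG and 5 mM 3-AT for 48 hours at 37°C.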

Variant | one-hybrid fitness for binding NBS DNA
DAAK | ≤ 0.2
YERT | ≤ 0.2
GYFR | ≤ 0.2
EKTY | ≤ 0.2
SNAM | ≤ 0.2
LFSD | ≤ 0.2
VDCW | ≤ 0.2
GTMG | ≤ 0.2
MRMA | ≤ 0.2
PKSR | ≤ 0.2
NFMF | ≤ 0.2
RHWD | ≤ 0.2
RAIV | ≤ 0.2
AMCS | ≤ 0.2
QTSI | ≤ 0.2
VSEE | ≤ 0.2
VELG | ≤ 0.2
NALH | ≤ 0.2
CMCR | ≤ 0.2
IVLA | ≤ 0.2
QEKC | ≤ 0.2
SDCR | ≤ 0.2
RHFT | 0.245
KMYL | ≤ 0.2
GQLV | ≤ 0.2

Variant | one-hybrid fitness for binding NBS DNA
AHQN | ≤ 0.2
VLVF | ≤ 0.2
PTTF | ≤ 0.2
VRHV | ≤ 0.2
QVAV | ≤ 0.2
SPLH | ≤ 0.2
PGGY | ≤ 0.2
EAPC | ≤ 0.2
SKDF | ≤ 0.2
RYSI | ≤ 0.2
DCIR | ≤ 0.2
GVHR | ≤ 0.2
SDAW | ≤ 0.2
FSHN | ≤ 0.2
IKRW | ≤ 0.2
VDSS | ≤ 0.2
LNGR | ≤ 0.2
DPYR | ≤ 0.2
LYTS | ≤ 0.2
YHHC | ≤ 0.2
NVRC | ≤ 0.2
WLKM | ≤ 0.2
GLCE | ≤ 0.2
FSMR | ≤ 0.2
VVRK | ≤ 0.2

Variant | one-hybrid fitness for binding NBS DNA
HREY | ≤ 0.2
TESF | ≤ 0.2
ECNR | ≤ 0.2
WSPD | ≤ 0.2
KAAI | ≤ 0.2
PTWK | ≤ 0.2
EQTY | ≤ 0.2
MPRV | ≤ 0.2
KNHI | ≤ 0.2
KSNY | ≤ 0.2
LTHS | ≤ 0.2
CGSH | ≤ 0.2
DCMT | ≤ 0.2
NVWF | ≤ 0.2
RFQY | ≤ 0.2
TITA | ≤ 0.2
RYQK | ≤ 0.2
SRFR | ≤ 0.2
YLNG | ≤ 0.2
LINM | ≤ 0.2
TECC | ≤ 0.2
NTAC | ≤ 0.2
EKKL | ≤ 0.2
HTTC | ≤ 0.2
SASY | ≤ 0.2

Variant | one-hybrid fitness for binding NBS DNA
ASDV | ≤ 0.2
DIPG | ≤ 0.2
IRCL | ≤ 0.2
VRPK | ≤ 0.2
QSWM | ≤ 0.2
APST | ≤ 0.2
NPTW | ≤ 0.2
MDTN | ≤ 0.2
SNMR | ≤ 0.2
NAKW | ≤ 0.2
NQFS | ≤ 0.2
RSHE | ≤ 0.2
LIKS | ≤ 0.2
APRP | ≤ 0.2
ISRG | ≤ 0.2
AMYR | ≤ 0.2
YAKT | ≤ 0.2
TKWS | ≤ 0.2
GAFT | ≤ 0.2
PTTK | ≤ 0.2
AMRD | ≤ 0.2
NLMR | ≤ 0.2
RQAE | ≤ 0.2
GKNG | ≤ 0.2
RFLP | ≤ 0.2

Variant | one-hybrid fitness for binding NBS DNA
HMAG | ≤ 0.2
HDHL | ≤ 0.2
CMMP | ≤ 0.2
MWAS | ≤ 0.2
TTIW | ≤ 0.2
YRAH | ≤ 0.2
QSSR | 0.526
QYFV | ≤ 0.2
LQPT | ≤ 0.2
PGAS | ≤ 0.2
HSPL | ≤ 0.2
EAWY | ≤ 0.2
RMWW | ≤ 0.2
DSNT | ≤ 0.2
LQLL | ≤ 0.2
TKAR | ≤ 0.2
VLDR | ≤ 0.2
TVGL | ≤ 0.2
ASIH | ≤ 0.2
CHRC | ≤ 0.2
TLNF | ≤ 0.2
VYTI | ≤ 0.2
QPWI | ≤ 0.2
DSHR | ≤ 0.2
NVQT | ≤ 0.2

Variant | one-hybrid fitness for binding NBS DNA
MRHE | ≤ 0.2
CVIC | ≤ 0.2
QEKG | ≤ 0.2
VWSI | ≤ 0.2
ILYS | ≤ 0.2
LVVC | ≤ 0.2
GHLR | ≤ 0.2
RCMA | ≤ 0.2
HAPQ | ≤ 0.2
NKTK | ≤ 0.2
KARL | ≤ 0.2
EMRC | ≤ 0.2
LNKT | ≤ 0.2
AMPC | ≤ 0.2
QQQR | 0.586
NALS | ≤ 0.2
FHNS | ≤ 0.2
MVHL | ≤ 0.2
TLAY | ≤ 0.2
DACN | ≤ 0.2
RIAL | ≤ 0.2
NVSL | ≤ 0.2
VWRC | ≤ 0.2
TWHV | ≤ 0.2
KTTV | ≤ 0.2

Variant | one-hybrid fitness for binding NBS DNA
VPQD | ≤ 0.2
HSPA | ≤ 0.2
CRES | ≤ 0.2
CMAE | ≤ 0.2
MVER | 0.34
LLSL | ≤ 0.2
FWLR | ≤ 0.2
NVKV | ≤ 0.2
TDMS | ≤ 0.2
NVMR | ≤ 0.2
ASYC | ≤ 0.2
STEL | ≤ 0.2
RCVK | ≤ 0.2
QDTA | ≤ 0.2
QLPN | ≤ 0.2
WKSA | ≤ 0.2
LKTW | ≤ 0.2
EDSM | ≤ 0.2
WVEF | ≤ 0.2
KVKT | ≤ 0.2
VMHS | ≤ 0.2
PTYL | ≤ 0.2
TLGG | ≤ 0.2
GNKK | ≤ 0.2
LDTL | ≤ 0.2

Variant | one-hybrid fitness for binding NBS DNA
VATR | ≤ 0.2
PMNS | ≤ 0.2
KNIE | ≤ 0.2
FGTT | ≤ 0.2
PCFY | ≤ 0.2
GHQP | ≤ 0.2
RPVW | ≤ 0.2
CFAC | ≤ 0.2
TQTW | ≤ 0.2
HKEP | ≤ 0.2
HAHA | ≤ 0.2
PENA | ≤ 0.2
GLKF | ≤ 0.2
TAMV | ≤ 0.2
RRES | 0.578
APHM | ≤ 0.2
VLTW | ≤ 0.2
HTHI | ≤ 0.2
QMDN | ≤ 0.2
RWLR | ≤ 0.2
